Measured values reported in the supplement of paper PMC10338343.
± gives the standard deviation. The entries are a selection whose mix differs from that of the whole data set.

Tested on: MIWI (PIWIL1) piRISC loaded with L1MC piRNA (30 nt)
Assay: pre-steady-state target cleavage rate (min^-1); MIWI and MILI are mouse PIWI proteins and EfPiwi is from a freshwater sponge; tags in brackets are library labels; higher = faster piRNA-guided slicing of the target
Details: guide: L1MC piRNA 5'p-UAACUAAAUACUAUGCAAGCUGUAGGUCCU; auxiliary factor: 500 nM mouse GTSF1
Method in brief: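 At 33 °C in HEPES–potassium acetate buffer, a transcribed, DNA-blocked target RNA library […] was exposed for 0–8 or 0–960 min to 1 nM active affinity-purified piRISC carrying a single synthetic guide, with or without 500 nM GTSF1 partner protein. Uncleaved targets were sequenced and normalised to depth and to weakly complementary targets. With three trials pooled and k3 capped at 0.0001 min^-1, a burst-and-steady-state fit produced the pre-steady-state cleavage rate.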
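Note: 1 nM active piRISC with 0.1 nM target library at 33 °C single turnover.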

Sequence	pre-steady-state target cleavage rate
UCGACCUACAGCUUGCAUAGUAUAAAGAAA	0.417 ± 0.064
UCCUGCUACAGCUUGCAUAGUUAAUAGAAA	0.078 ± 0.022
UCCACCUAGUGCUUGCAUAGUAUUUACAAA	0.0829 ± 0.016
UCCUGGAACAGGAUGCAUAGUAUUUAGUAA	0.202 ± 0.027
UCCUGGAUGUCGAACCAUAGAAUUUUGUUA	0.146 ± 0.086
AGGACCUACACGUUGCAUAGUAUUUACAAA	0.34 ± 0.043
UCCUGGAUGUCCUUGCAAAGUAUUUUGUUA	0.00918 ± 0.0043
UCCUGGAUGAGCUAGCAUAGUAUUUACAAA	0.036 ± 0.012
UCCUCCUACACGAUGCAUAGUAUUUACAAA	0.17 ± 0.033
UCCUGCUACAGCUAGCAUAGUAUUUACAAA	0.234 ± 0.049
UCCUGGAUCAGCUUGGAUAGUAUUUAGAAA	0.059 ± 0.016
UCCUGGAUGUCGAUCGCAUAGUAUUUAGUUA	0.00822 ± 0.0034
UCCUGGUACAGCUUGCCAUAGUAUUUAGUUA	0.0951 ± 0.024
UCCUGGAUGUCGAUGCAUAGUAUUUAAGUUA	0.0127 ± 0.0046
UCCUCCUACAGGAAGCAUAGUAUUUACAAA	0.103 ± 0.02
UCCUCCUACAGCUACCAUAGUAUUUAGUUA	0.412 ± 0.037
UCCUGGUACAGCAUGCAUAGUAUUUUCAAA	0.199 ± 0.048
UCCUCCUACAGCUUGGUUAGUAUUUACAAA	0.0571 ± 0.013
UCGACCUACACGAUGCAUAGUAUUUUCAAA	0.182 ± 0.032

Sequence	pre-steady-state target cleavage rate
AGGACCUACAGCUAGCAUAGUAUUUUCAAA	0.42 ± 0.052
UCCUGGAUGAGCUUCCAUAGUAUUUAGAUA	0.00762 ± 0.0045
UCCUGGAACAGCAAGCAUAGUAUUUAGAAA	0.118 ± 0.022
UCCUGGAACAGCUUGCUAAGUAUUUACAAA	0.00474 ± 0.0039
UCCUGCUACAGCUUGGUAAGUAUUUAGUAA	0.0603 ± 0.018
UCCACCUACACGAUGCAUAGUAUUUAGAAA	0.223 ± 0.038
UCCACCUACAGCUUGCAAAGUAUUUUCAAA	0.214 ± 0.035
UCCUGGAUCACGAUGCAUAGUAUUUAGUUA	0.022 ± 0.0053
UCCUGGAUGUCCAUGCAUACUAUUUAGUUA	0.00672 ± 0.0046
UGGACCUACAGCUUGCAUACAAUUUAGUAA	0.00447 ± 0.0027
UCCUGCUACAGCAAGCAUAGUAUUUAGAAA	0.274 ± 0.053
AGGACCUACAGCUUGCUAUGUAUUUAGAAA	0.147 ± 0.047
UCCUGGUACAGCUUGCAUAGUAUAAAGAAA	0.0796 ± 0.029
UCGACCUACAGCUUGCAUCAGUAUUUAGUUA	0.11 ± 0.041
UCCUGGUACAGCUUGCAUAGUAUUAAGAAA	0.101 ± 0.023
UCCUGGUACUGCUUGCAUAGUAUUUUCAAA	0.0549 ± 0.016
UGGACCUACAGCUUGCAUAGUAAAAACAAA	0.0611 ± 0.021
UCCUGGAUCACCUAGCAUAGUAUUUAGUUA	0.0493 ± 0.011

Same assay, conditions: guide: L1MC piRNA 5'p-UAACUAAAUACUAUGCAAGCUGUAGGUCCU; auxiliary factor: none (no GTSF1)

Sequence	pre-steady-state target cleavage rate
UCGACCUACAGCUUGGAUAGUAUUUAGUUA	0.0599 ± 0.01
UGGACCUACAGCUUGCAUAGUAUUUAGUUA [g2:g29:cont:t1A]	0.0718 ± 0.013
UCCUGGAUGAGCUUCGUUAGUAUUUAGAAA	< 0.0001
